The values below come from PubChem BioAssay (NCATS).

This is one part of the list. These are further read-outs of the screen, such as a control signal, another cell line or another target. No call is given for them. The list favours compounds with an active or inconclusive main result.

The nature of this assay: qHTS Assay for Lipid Storage Modulators (AID 1519). To be noted: Drosophila S3 cells, BODIPY lipid droplet/cell ratio, laser cytometry; measured here: lipid channel max response; cells loaded with oleic acid. Summed up:
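Cells seeded at 5,000 per well were treated with compounds over a concentration series and loaded with oleic acid (400 uM, as added). Lipid droplet fluorescence (488 nm excitation, 500-530 nm channel) was read by laser-scanning cytometry and normalized to 20 uM Triacsin C.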
On to `O=C(c1ccco1)N1CCC[C@@]2(CCN(c3cccc(-c4ccccc4)c3)C2)C1`, for which the max response was -13.3%.

For the compound `Cn1c(=O)cnc2cnc(Nc3ccccc3)nc21`, the max response is -18.9%.

Consider `O=C(O)C(S)[C@@H](S)C(=O)O` (stereo not given in full), for which the max response was 32.8%.

With `COc1cccc(OC)c1C(=O)NC1C(=O)N2C1SC(C)(C)C2C(=O)O` (stereo not given), the max response amounted to 34.4%.

In the case of `COc1ccc2c(c1)OCC(Cc1ccc(OC)c(OC)c1)C2=O` (stereo not given), the max response was -71.7%.

Take `COC(=O)N1CCC2(CCN(C(=O)Nc3cccc(F)c3)CC2)CC1`: the max response was 28.9%.

As for `COc1cccc(Nc2ncc3nc(-c4ccc(F)cc4)c(=O)n(C[C@H]4CCCO4)c3n2)c1`, the max response was -55.5%.

With `COc1ccc(NC(=O)N2CC3(CCN(C(=O)c4ccncc4)CC3)C2)cc1`, the max response is 27.3%.

For the compound `CN1CCN(c2ncc3ncc(=O)n(CCc4ccccc4)c3n2)CC1`, the max response came to 34%.

In the case of `CCNc1ncc2nc(-c3ccc(Cl)cc3)c(=O)n(Cc3ccc(F)cc3)c2n1`, the max response worked out at 18%.

On to `Nc1nc(=O)n(C2OC(CO)C(O)C2O)cc1Cl` (stereo not given), for which the max response worked out at 37.2%.

Regarding `CCOC(=O)NNc1nncc2ccccc12`, the max response was determined as 42.9%.

`C[C@@](Cc1ccc(O)c(O)c1)(NN)C(=O)O`: the max response was 35.4%.

As for `CC1(C)CC[C@]2(C(=O)O)CC[C@@]3(C)C(=CCC4[C@@]5(C)CCC(O)C(C)(C)C5CC[C@@]43C)C2C1` (stereo not given in full), the max response came out at 36.3%.

For `CS(=O)(=O)N1CCC2(CC1)CN(c1ccc(-c3ccccc3)cc1)C2`, the max response worked out at 6.21%.

In the case of `CN1CCN(c2ncc3nc(-c4cn(C)c5ccccc45)c(=O)n(Cc4cccs4)c3n2)CC1`, the max response is -97.7%.

`O=S(=O)(c1ccccc1)N1CCC2(CC1)CN(Cc1ccccc1)C2`: the max response was found to be 36.5%.

For `CN1CCN(c2ncc3nc(CCc4ccccc4)c(=O)n(CCC#N)c3n2)CC1`, the max response worked out at 12.7%.

As to `O=S(=O)(c1ccccc1)N1CCC2(CC1)CN(Cc1nccs1)C2`, the max response was determined as 30.1%.

Turning to `O=C(Nc1cccc(F)c1)N1CCCC2(CCNCC2)C1`, the max response was determined as 36.1%.

With `CC(=O)N1CCC2(CCN(Cc3ccc(C#N)cc3)CC2)CC1`, the max response was 6.17%.

For the compound `COc1ccccc1OCC(O)COC(N)=O` (stereo not given), the max response was 34.7%.

For `CCNc1ncc2nc(-c3cccc(C#N)c3)c(=O)n(C)c2n1`, the max response was -25.6%.

With `O=C(Nc1cccc(F)c1)N1CCCC2(CCN(C(=O)c3csnn3)CC2)C1`, the max response is 31.7%.

`N#CCCn1c(=O)c(-c2ccc(F)cc2)nc2cnc(N3CCNCC3)nc21`: the max response is 31.5%.

In the case of `N#Cc1cccc(-c2nc3cnc(Nc4ccccc4)nc3n(C[C@H]3CCCO3)c2=O)c1`, the max response is -11.9%.

For the compound `COc1ccc2[nH]cc(CCNc3ccnc(-c4ccc5c(c4)OCO5)n3)c2c1`, the max response turned out to be 24.9%.

Take `CN(C)c1ncc2ncc(=O)n(CCc3ccccc3)c2n1`: the max response was 1.65%.

For `COc1ccc(-n2c(=O)c(C)nc3cnc(N4CCNCC4)nc32)cc1`, the max response is 31.1%.

For `CNc1cc(-c2ccccc2C)ncn1`, the max response stood at 28.2%.

In the case of `Cn1cccc1C(=O)N1CCC2(CCCN(Cc3nccs3)C2)CC1`, the max response amounted to 29.4%.

`CCNc1ncc2nc(-c3ccc(F)cc3)c(=O)n(CCc3ccccc3)c2n1`: the max response was 25.2%.

On to `CS(=O)(=O)Nc1cccc(-c2cncnc2NCc2ccccc2)c1`, for which the max response came to 41.4%.

Consider `Cc1noc(C)c1C(=O)N1CCC2(CCN(Cc3nccs3)CC2)CC1`, for which the max response came to 34.5%.

As to `Cc1nc2cnc(N3CCOCC3)nc2n(Cc2cccs2)c1=O`, the max response came out at 35.9%.

As for `N#CCCn1c(=O)c(-c2ccccc2)nc2cnc(N3CCNCC3)nc21`, the max response was found to be 25.8%.

As for `CC(=O)OCC(=O)[C@@]1(O)CCC2C3CCC4=CC(=O)C=CC4(C)C3C(O)C[C@]21C` (stereo not given in full), the max response was found to be 30.7%.

As to `COc1ccc(-n2c(=O)c(-c3ccc(Cl)cc3)nc3cnc(N(C)C)nc32)cc1`, the max response came out at 39.1%.

Regarding `COc1cccc(Cn2c(=O)cnc3cnc(OCc4ccccc4)nc32)c1`, the max response was found to be 29.7%.

For `Cn1cc(-c2nc3cnc(N4CCNCC4)nc3n(CCc3ccccc3)c2=O)c2ccccc21`, the max response was -80.8%.
